Measured values as given in EP4345091A1, “BENZOIC ACID DERIVATIVES, METHODS AND USES THEREOF” (priority 2022, dated 2024).

test system: Mycobacterium smegmatis homogenate; test: Stability in Mycobacterium smegmatis homogenate (enzymatic hydrolysis); settings: 37°C, 48h, substrate 5×10^-4M with 2% ACN, values are kobs × 100

`CCCCOC(=O)c1ccccc1` [Compound 1a, Butyl benzoate] and `CCCCCCOC(=O)c1ccccc1` [Compound 1b, Hexyl benzoate] are within error of each other in “kobs × 100” value: 356 ± 17 h^-1 for the first, 332 ± 19 h^-1 for the second.

First: CCCCCCCCOC(=O)c1ccccc1 [Compound 1c, Octyl benzoate]
Second: CCCCCCCCCCCCOC(=O)c1ccccc1 [Compound 1e, Dodecyl benzoate]
The “kobs × 100” value of the first is higher: 35.5 ± 0.3 h^-1 for the first, 0.76 ± 0.02 h^-1 for the second.

Going from `CCCCOC(=O)c1ccc([N+](=O)[O-])cc1` [Compound 2a] to `CCCCCCOC(=O)c1ccc([N+](=O)[O-])cc1` [Compound 2b], the “kobs × 100” value falls from 20.4 ± 3.3 h^-1 to 6.05 ± 0.31 h^-1.

First: CCCCCCCCOC(=O)c1ccc([N+](=O)[O-])cc1 [Compound 2c, Octyl 4-nitrobenzoate]
Second: CCCCCCCCCCCCOC(=O)c1ccc([N+](=O)[O-])cc1 [Compound 2e]
The “kobs × 100” value of the first is higher: 1.80 ± 0.38 h^-1 for the first, 0.88 ± 0.05 h^-1 for the second.

Compared with `CCCCOC(=O)c1cc([N+](=O)[O-])cc([N+](=O)[O-])c1` [Compound 3a], `CCCCCCOC(=O)c1cc([N+](=O)[O-])cc([N+](=O)[O-])c1` [Compound 3b] is lower in “kobs × 100” value: 11.0 ± 0.8 h^-1 for the first, 0.86 ± 0.06 h^-1 for the second.

First: CCCCOC(=O)c1cc([N+](=O)[O-])cc(C(F)(F)F)c1 [Compound 4a, Butyl 3-nitro-5-(trifluoromethyl)benzoate]
Second: CCCCCCOC(=O)c1cc([N+](=O)[O-])cc(C(F)(F)F)c1 [Compound 4b, Hexyl 3-nitro-5-(trifluoromethyl)benzoate]
The “kobs × 100” value of the first is higher: 13.0 ± 1.1 h^-1 for the first, 0.67 ± 0.06 h^-1 for the second.

`CCCCNC(=O)c1ccc([N+](=O)[O-])cc1` [Compound 6a, N-butyl-4-nitrobenzamide] and `CCCCCCNC(=O)c1ccc([N+](=O)[O-])cc1` [Compound 6b, N-hexyl-4-nitrobenzamide] are within error of each other in “kobs × 100” value: 0.91 ± 0.07 h^-1 for the first, 0.80 ± 0.05 h^-1 for the second.

Going from `CCCCNC(=O)c1cc([N+](=O)[O-])cc([N+](=O)[O-])c1` [Compound 7a, N-butyl-3.5-dinitrobenzamide] to `CCCCCCNC(=O)c1cc([N+](=O)[O-])cc([N+](=O)[O-])c1` [Compound 7b, N-hexyl-3.5-dinitrobenzamide], the “kobs × 100” value falls from 3.03 ± 0.20 h^-1 to 0.84 ± 0.01 h^-1.

With `CCCCNC(=O)c1cc([N+](=O)[O-])cc(C(F)(F)F)c1` [Compound 8a, N-butyl-3-nitro-5-(trifluoromethyl)-benzamide] the “kobs × 100” value was 1.09 ± 0.07 h^-1.
